Assay results: paper PMC7290032
Results are given in words; binding and its absence hold for the method and conditions named. Binding seen in cells or lysates may run through a third protein. Some results given as binding are weak or reduced against the parent protein; the word gives no strength. Where a sequence is shown, tags or fusion partners need not be part of it.

By UniProt entry, the sequences of proteins in these tests, tags left out.
UniProt P27694: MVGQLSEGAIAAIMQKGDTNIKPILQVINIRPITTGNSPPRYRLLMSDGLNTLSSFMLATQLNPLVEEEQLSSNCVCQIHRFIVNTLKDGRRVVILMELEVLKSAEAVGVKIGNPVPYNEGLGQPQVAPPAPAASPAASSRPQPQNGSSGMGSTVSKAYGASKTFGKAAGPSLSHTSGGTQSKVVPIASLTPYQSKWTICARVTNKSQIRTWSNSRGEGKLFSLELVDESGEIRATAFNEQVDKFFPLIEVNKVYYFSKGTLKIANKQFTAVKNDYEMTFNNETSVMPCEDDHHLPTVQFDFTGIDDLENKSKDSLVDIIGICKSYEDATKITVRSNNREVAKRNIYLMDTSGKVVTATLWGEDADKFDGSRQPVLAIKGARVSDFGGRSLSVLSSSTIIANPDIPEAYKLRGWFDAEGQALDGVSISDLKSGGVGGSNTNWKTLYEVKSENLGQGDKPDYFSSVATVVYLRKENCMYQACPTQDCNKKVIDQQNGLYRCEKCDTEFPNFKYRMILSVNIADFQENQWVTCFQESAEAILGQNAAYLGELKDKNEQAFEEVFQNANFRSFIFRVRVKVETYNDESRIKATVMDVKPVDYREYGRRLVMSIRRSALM
UniProt P15927: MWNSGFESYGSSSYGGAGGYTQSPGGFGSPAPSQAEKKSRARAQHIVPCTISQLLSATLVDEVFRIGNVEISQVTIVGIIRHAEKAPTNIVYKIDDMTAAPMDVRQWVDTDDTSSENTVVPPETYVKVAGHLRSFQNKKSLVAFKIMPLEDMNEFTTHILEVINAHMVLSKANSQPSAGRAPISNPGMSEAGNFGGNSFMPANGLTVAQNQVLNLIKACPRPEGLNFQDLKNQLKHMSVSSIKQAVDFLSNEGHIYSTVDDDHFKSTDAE

Experiments:
[1] = biological target: T1, GST-MCM8IP first 215 residues (human) (UniProt Q8N3J3); assay: pull-down; GST fusion from E. coli held on glutathione-agarose and washed, incubated 2 h at 4 °C with cleared lysate of bacteria expressing the partner; 20 mM Tris-HCl pH 7.5, 200 mM NaCl, 0.5% NP40; western blot; only the target purified
T1 sequence: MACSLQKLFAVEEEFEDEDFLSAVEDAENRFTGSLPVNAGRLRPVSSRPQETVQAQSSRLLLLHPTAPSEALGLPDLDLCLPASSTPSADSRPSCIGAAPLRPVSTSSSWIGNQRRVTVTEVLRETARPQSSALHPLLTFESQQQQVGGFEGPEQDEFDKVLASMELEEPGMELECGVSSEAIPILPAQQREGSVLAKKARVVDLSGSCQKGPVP

GST-MCM8IP RBM (human) = biological target: T2, GST-MCM8IP RBM (human) (UniProt Q8N3J3); assay: as above
T2 sequence: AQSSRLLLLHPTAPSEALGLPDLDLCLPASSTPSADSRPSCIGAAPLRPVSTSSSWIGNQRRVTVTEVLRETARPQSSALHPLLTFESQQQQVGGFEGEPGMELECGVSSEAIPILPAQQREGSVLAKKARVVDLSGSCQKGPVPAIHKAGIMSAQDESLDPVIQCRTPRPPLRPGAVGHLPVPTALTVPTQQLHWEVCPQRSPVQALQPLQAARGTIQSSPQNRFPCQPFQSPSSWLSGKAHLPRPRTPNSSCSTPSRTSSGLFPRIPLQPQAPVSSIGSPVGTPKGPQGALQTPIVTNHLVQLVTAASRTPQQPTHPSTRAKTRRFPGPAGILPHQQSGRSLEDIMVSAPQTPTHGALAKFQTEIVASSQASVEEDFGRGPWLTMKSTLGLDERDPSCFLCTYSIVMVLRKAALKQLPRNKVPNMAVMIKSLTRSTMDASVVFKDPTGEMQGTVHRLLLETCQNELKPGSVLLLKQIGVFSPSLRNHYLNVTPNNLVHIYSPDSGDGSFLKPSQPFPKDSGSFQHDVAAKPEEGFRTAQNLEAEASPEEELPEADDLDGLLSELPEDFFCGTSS

GST-MCM8IP WT (human) = biological target: T3, GST-MCM8IP WT (human) (UniProt Q8N3J3); assay: as above
T3 sequence: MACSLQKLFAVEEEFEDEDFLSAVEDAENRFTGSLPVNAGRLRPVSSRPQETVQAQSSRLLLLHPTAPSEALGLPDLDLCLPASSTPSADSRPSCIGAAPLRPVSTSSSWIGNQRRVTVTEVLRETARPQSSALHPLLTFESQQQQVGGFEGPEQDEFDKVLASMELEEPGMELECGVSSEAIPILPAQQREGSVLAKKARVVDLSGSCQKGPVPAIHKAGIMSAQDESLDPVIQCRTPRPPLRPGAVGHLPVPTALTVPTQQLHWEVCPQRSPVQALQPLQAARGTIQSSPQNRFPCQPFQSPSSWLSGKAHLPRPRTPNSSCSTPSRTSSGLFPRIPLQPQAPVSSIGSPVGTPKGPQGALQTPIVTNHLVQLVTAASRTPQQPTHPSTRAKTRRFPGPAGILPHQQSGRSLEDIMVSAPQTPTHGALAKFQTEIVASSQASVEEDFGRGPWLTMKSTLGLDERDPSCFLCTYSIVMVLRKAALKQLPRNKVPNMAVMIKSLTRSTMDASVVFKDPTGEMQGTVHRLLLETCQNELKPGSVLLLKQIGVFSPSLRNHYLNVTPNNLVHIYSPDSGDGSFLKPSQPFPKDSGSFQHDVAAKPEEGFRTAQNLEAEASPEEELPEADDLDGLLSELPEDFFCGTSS

HA-MCM8IP WT (human) = biological target: T4, HA-MCM8IP WT (human) (UniProt Q8N3J3); assay: co-IP; anti-HA agarose from lysates of HEK293T cells expressing the HA-tagged bait; 50 mM Tris-HCl pH 7.5, 1% NP40, 150 mM NaCl, 4 h at 4 °C; western blot of endogenous partners
T4 sequence: T3 sequence

Row | binding [1] | binding (GST-MCM8IP RBM (human)) | binding (GST-MCM8IP WT (human)) | binding (HA-MCM8IP WT (human)) | Substance
1 | binds | no binding | binds | – | RPA1 (expressed in bacteria) (from UniProt P27694 1-616)
2 | – | – | – | binds | RPA1 (from UniProt P27694 1-616)
3 | – | – | – | binds | RPA2 (from UniProt P15927 1-270)
